# Assay results reported in the supplement of paper PMC8728848.
# The list shows a part of the results.
# B1: PX15618A-bth-503-24-503 (Bacteroides thetaiotaomicron) (protein)
# chain: NKSEDKLSGDDFWAQGNETNAEAFLLSIYNSFRNATMSQRPFLTYSGDMRCAPITAYSTGDKYVAYLANNDMGELRNTYPDDARGGLIMQWDVFYTAIQDANILLAEIDKVPGMDELKRSRFKAEAIFMRSLSYFFIVRAFGDVPYYTNAYNEAPLPRTNMVIVLQNCLADLQPLLDDDPGAEVLPWSYSSYSSKGIRASRGSVIALMMHINLWLVQFDAQNKEQYYRNVVSLGEELERNNGAYSLLDINRSSVIFAGGSDEGLFEIAQNINFNEIFMMNAKFSDNVSYSCLNKSMPLFCYSGDYLMTLFPMYEDDARKELWFDEKIYSTSVSSSAPKEIKKFWNIDTYGNGTITSNSGNQIVFRYAGALLLYAEALAALGTNDTKACELLNRVRNRAHASEINTSGSELMDAIFWERCRELIGEGHYYYDLVRTGKVYNRNYCMNPMTRTNFNVGAWTWPIHRNALKNNTQIGLNLFWE
# What was measured:
# Experiment in all cases: glycan array binding signal (z-score within array); higher = stronger binding
# Conditions in all cases: glycan notation: IUPAC condensed, linker removed
# [1] = molecular target: Gal(a1-3)Gal(b1-4)GlcNAc(b1-2)Man
# Outline: (§1)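 Columns mapping to the same glycan were averaged after glycan names were converted to IUPAC-condensed notation. The data come from 3228 arrays in the Consortium for Functional Glycomics database, limited to those with an available protein sequence. Binding is reported as a within-array Z-score averaged across arrays of one protein sequence and across linkers.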
# [2] = molecular target: Gal(a1-3)Gal(b1-4)GlcNAc(b1-2)Man(a1-3)[Gal(a1-3)Gal(b1-4)GlcNAc(b1-2)Man(a1-6)]Man(b1-4)GlcNAc(b1-4)GlcNAc
# Outline: as §1
# [3] = molecular target: Gal(a1-3)Gal(b1-4)GlcNAc(b1-3)GalNAc
# Outline: as §1
# [4] = molecular target: Gal(a1-3)Gal(b1-4)GlcNAc(b1-6)GalNAc
# Outline: as §1
# [5] = molecular target: Gal(a1-3)Gal(b1-4)[Fuc(a1-3)]GlcNAc
# Outline: as §1
# [6] = molecular target: Gal(a1-3)Gal(b1-4)[Fuc(a1-3)]GlcNAc(b1-2)Man(a1-3)[Gal(a1-3)Gal(b1-4)[Fuc(a1-3)]GlcNAc(b1-2)Man(a1-6)]Man(b1-4)GlcNAc(b1-4)GlcNAc
# Outline: as §1
# Gal(a1-3)GalNAc = molecular target: Gal(a1-3)GalNAc
# Outline: as §1
# [7] = molecular target: Gal(a1-3)[Gal(a1-4)]Gal(b1-4)GlcNAc
# Outline: as §1
# [8] = molecular target: Gal(a1-4)Gal(b1-3)GlcNAc(b1-2)Man(a1-3)[Gal(a1-4)Gal(b1-3)GlcNAc(b1-2)Man(a1-6)]Man(b1-4)GlcNAc(b1-4)GlcNAc
# Outline: as §1
# Gal(a1-4)Gal(b1-4)Glc = molecular target: Gal(a1-4)Gal(b1-4)Glc
# Outline: as §1
# Gal(a1-4)Gal(b1-4)GlcNAc = molecular target: Gal(a1-4)Gal(b1-4)GlcNAc
# Outline: as §1
# [9] = molecular target: Gal(a1-4)Gal(b1-4)GlcNAc(b1-2)Man(a1-3)[Gal(a1-4)Gal(b1-4)GlcNAc(b1-2)Man(a1-6)]Man(b1-4)GlcNAc(b1-4)GlcNAc
# Outline: as §1
# [10] = molecular target: Gal(a1-4)Gal(b1-4)GlcNAc(b1-3)Gal(b1-4)Glc
# Outline: as §1
# Gal(a1-4)GlcNAc = molecular target: Gal(a1-4)GlcNAc
# Outline: as §1
# Gal(a1-6)Glc = molecular target: Gal(a1-6)Glc
# Outline: as §1
# Gal(b1-2)Gal = molecular target: Gal(b1-2)Gal
# Outline: as §1
# Gal(b1-3)Gal = molecular target: Gal(b1-3)Gal
# Outline: as §1
# Gal(b1-3)Gal(b1-4)GlcNAc = molecular target: Gal(b1-3)Gal(b1-4)GlcNAc
# Outline: as §1
# Gal(b1-3)GalNAc = molecular target: Gal(b1-3)GalNAc
# Outline: as §1
# [11] = molecular target: Gal(b1-3)GalNAc(a1-3)[Fuc(a1-2)]Gal(b1-4)Glc
# Outline: as §1
# [12] = molecular target: Gal(b1-3)GalNAc(a1-3)[Fuc(a1-2)]Gal(b1-4)GlcNAc
# Outline: as §1
# Gal(b1-3)GalNAc(b1-3)Gal = molecular target: Gal(b1-3)GalNAc(b1-3)Gal
# Outline: as §1
# [13] = molecular target: Gal(b1-3)GalNAc(b1-3)Gal(a1-4)Gal(b1-4)Glc
# Outline: as §1
# [14] = molecular target: Gal(b1-3)GalNAc(b1-4)Gal(b1-4)Glc
# Outline: as §1
# [15] = molecular target: Gal(b1-3)GalNAc(b1-4)[Neu5Ac(a2-3)]Gal(b1-4)Glc
# Outline: as §1
# Gal(b1-3)GlcNAc = molecular target: Gal(b1-3)GlcNAc
# Outline: as §1
# [16] = molecular target: Gal(b1-3)GlcNAc(a1-3)Gal(b1-4)GlcNAc
# Outline: as §1
# [17] = molecular target: Gal(b1-3)GlcNAc(a1-6)Gal(b1-4)GlcNAc
# Outline: as §1
# Gal(b1-3)GlcNAc(b1-2)Man = molecular target: Gal(b1-3)GlcNAc(b1-2)Man
# Outline: as §1
# [18] = molecular target: Gal(b1-3)GlcNAc(b1-2)Man(a1-3)[Gal(b1-3)GlcNAc(b1-2)Man(a1-6)]Man(b1-4)GlcNAc(b1-4)GlcNAc
# Outline: as §1
# [19] = molecular target: Gal(b1-3)GlcNAc(b1-2)Man(a1-3)[Gal(b1-3)GlcNAc(b1-2)Man(a1-6)]Man(b1-4)GlcNAc(b1-4)[Fuc(a1-6)]GlcNAc
# Outline: as §1
# [20] = molecular target: Gal(b1-3)GlcNAc(b1-2)Man(a1-3)[GlcNAc(b1-4)][Gal(b1-3)GlcNAc(b1-2)Man(a1-6)]Man(b1-4)GlcNAc(b1-4)GlcNAc
# Outline: as §1
# [21] = molecular target: Gal(b1-3)GlcNAc(b1-2)[Gal(b1-3)GlcNAc(b1-6)]Man(a1-6)[Gal(b1-3)GlcNAc(b1-2)Man(a1-3)]Man(b1-4)GlcNAc(b1-4)GlcNAc
# Outline: as §1
# [22] = molecular target: Gal(b1-3)GlcNAc(b1-3)Gal(b1-3)GlcNAc
# Outline: as §1
# [23] = molecular target: Gal(b1-3)GlcNAc(b1-3)Gal(b1-4)Glc
# Outline: as §1
# [24] = molecular target: Gal(b1-3)GlcNAc(b1-3)Gal(b1-4)GlcNAc
# Outline: as §1
# [25] = molecular target: Gal(b1-3)GlcNAc(b1-3)Gal(b1-4)GlcNAc(b1-2)Man(a1-3)[Gal(b1-3)GlcNAc(b1-3)Gal(b1-4)GlcNAc(b1-2)Man(a1-6)]Man(b1-4)GlcNAc(b1-4)GlcNAc
# Outline: as §1
binder,measurement,setting,value
B1,glycan array binding signal (z-score),[1],-0.115
same,glycan array binding signal (z-score),[2],0.355
same,glycan array binding signal (z-score),[3],0.031
same,glycan array binding signal (z-score),[4],-0.447
same,glycan array binding signal (z-score),[5],-0.213
same,glycan array binding signal (z-score),[6],0.658
same,glycan array binding signal (z-score),Gal(a1-3)GalNAc,-0.389
same,glycan array binding signal (z-score),[7],3.72
same,glycan array binding signal (z-score),[8],0.075
same,glycan array binding signal (z-score),Gal(a1-4)Gal(b1-4)Glc,0.319
same,glycan array binding signal (z-score),Gal(a1-4)Gal(b1-4)GlcNAc,-0.12
same,glycan array binding signal (z-score),[9],0.105
same,glycan array binding signal (z-score),[10],-0.389
same,glycan array binding signal (z-score),Gal(a1-4)GlcNAc,0.225
same,glycan array binding signal (z-score),Gal(a1-6)Glc,-0.371
same,glycan array binding signal (z-score),Gal(b1-2)Gal,-0.544
same,glycan array binding signal (z-score),Gal(b1-3)Gal,0.14
same,glycan array binding signal (z-score),Gal(b1-3)Gal(b1-4)GlcNAc,-0.654
same,glycan array binding signal (z-score),Gal(b1-3)GalNAc,-0.315
same,glycan array binding signal (z-score),[11],-0.329
same,glycan array binding signal (z-score),[12],0.026
same,glycan array binding signal (z-score),Gal(b1-3)GalNAc(b1-3)Gal,-0.346
same,glycan array binding signal (z-score),[13],-0.567
same,glycan array binding signal (z-score),[14],-0.291
same,glycan array binding signal (z-score),[15],-0.295
same,glycan array binding signal (z-score),Gal(b1-3)GlcNAc,-0.227
same,glycan array binding signal (z-score),[16],-0.121
same,glycan array binding signal (z-score),[17],-0.593
same,glycan array binding signal (z-score),Gal(b1-3)GlcNAc(b1-2)Man,-0.277
same,glycan array binding signal (z-score),[18],0.413
same,glycan array binding signal (z-score),[19],0.309
same,glycan array binding signal (z-score),[20],-0.221
same,glycan array binding signal (z-score),[21],2.47
same,glycan array binding signal (z-score),[22],-0.574
same,glycan array binding signal (z-score),[23],-0.247
same,glycan array binding signal (z-score),[24],0.29
same,glycan array binding signal (z-score),[25],-0.123
